The list shows a part of the results. Shown are side measurements of this screen, not its main read-out; they come without a call. Compounds called inactive in the main read-out are mostly missing here.
Assay: growth inhibition of WT strain, primary screen, mitochondrial fusion inhibitor project, WT and mutant strains, chemical genetic (AID 1362); note: tested in S. cerevisiae
Conditions: mitochondrial fusion phenotypic screen, at 10 µM

SMILES | inhibition [%]
Cc1ccc(-n2nnnc2C(Cl)c2nnnn2-c2ccc(C)cc2)cc1 | 65.5
O=C(c1sc2cc(F)ccc2c1Cl)N1CCN(c2ccccc2)CC1 | 37.5
COc1ccc(C2CC(c3ccccc3)=NN2C(=O)c2cccs2)cc1 (stereo unspecified) | 58.4
CCOc1cc(C2Nc3ccccc3C(=O)N2c2ccccc2OC)ccc1O (stereo unspecified) | -5.39
CCC(C)c1ccc(NC(=S)Nc2ccc(OC)cc2C)cc1 (stereo unspecified) | 0.44
O=C(/C=C/c1ccc2c(c1)OCCCO2)c1ccccc1O | 54.8
Cc1cc(C)c(Cc2c(C)nc3c(C(=O)NCc4ccco4)cnn3c2C)c(C)c1 | 35.5
CCc1nnc(NC(=O)Nc2ccccc2OC)s1 | -2.97
Cc1ccc(-n2[nH]c(C)c(/C=N/Nc3ccc([N+](=O)[O-])cc3[N+](=O)[O-])c2=O)cc1C | 59.4
O=C(c1ccc(Cl)cc1)c1c[nH]c(C(=O)C(Cl)(Cl)Cl)c1 | 62.7
COC(=O)c1ccc(/C=C(\C#N)c2nc3ccccc3s2)cc1 | 5.89
Cc1cc(C)c2nc(/N=C(\N)NC(=O)Nc3ccccc3)nc(C)c2c1 | 54.9
CC(C)CCNC(=S)Nc1ccc([N+](=O)[O-])cc1 | 72.8
CSc1nc(Cl)c(Cc2ccc(OC(C)C)cc2)c(N(C)C)n1 | 18.1
CCN1CCN(CCNC(=O)c2ccc(/C=C3/Sc4ccccc4N(Cc4cccc(Cl)c4)C3=O)cc2)CC1 | 71.7
CCN1C(=O)S/C(=C/c2c(OCc3ccc(C(=O)O)cc3)ccc3ccccc23)C1=O | -15.6
O=S(=O)(N1CCCCC1)N1CCN(c2cc(Cl)ccc2Cl)CC1 | 26.3
O=C(c1cnc(-c2ccc(Cl)cc2)s1)c1ccc(Cl)cc1Cl | 12.1
CN1/C(=C\C(=S)NC(=O)c2cccc(Br)c2)C(C)(C)c2ccccc21 | 19.2
N#CC1=C(N)NC(SCc2ccc(Br)cc2)=C(C#N)C12CCCCC2 | -11.5
CSc1cccc(NC(=S)N(CCCN2CCCC2)Cc2cccn2Cc2ccc(Cl)cc2)c1 | 64.7
O=C(O)Cn1c(CC(=O)N2CCCC2)nc2ccccc21 | 6.9

SMILES | inhibition [%]
CCOP(=O)(OCC)c1nc(/C=C/c2ccccc2)oc1NCc1ccccc1 | 0.64
CC1=CC(C)(C)N(C(=O)c2ccc(F)cc2)c2cc3c(cc21)OCO3 | 12.1
Cc1nc(C(=O)N2CCc3c([nH]c4ccccc34)C2c2cc(F)ccc2F)cs1 (stereo unspecified) | 54.5
CCSc1ncc(/C=N/Nc2ccccc2)n1C | 60.5
CCOc1cccc(OCCCNCCCOC)c1 | -27.7
CCc1ccc(CN(C)C(=O)CCc2nc3ccccc3n(-c3ccc(OC)cc3)c2=O)cc1 | 26.1
COC(=O)c1ccc(OC(=O)CCN2c3ccccc3Sc3ccccc32)cc1 | 30.9
CCOc1ccccc1C(=O)Nc1ccccc1-c1ccccc1 | 40.5
CC(C)C(=O)N(c1cc2sc(=O)oc2c2ccccc12)S(=O)(=O)c1cccs1 | 6.98
COCCN(C(=S)Nc1cccc(C)c1)C(C)c1cccs1 (stereo unspecified) | -6.08
O=C(O)c1ccccc1C(=O)NNc1ccc(Cl)cc1 | 50.3
O/N=C/c1cc(Cl)ccc1OCc1cccc2ccccc12 | 94.7
Cc1[nH][nH]c(=O)c1C(c1c(C)[nH][nH]c1=O)c1cn(Cc2ccc(Cl)c(Cl)c2)c2ccccc12 | -3.14
OC(COCC(F)(F)C(F)(F)C(F)(F)C(F)F)Cn1c2ccc(Cl)cc2c2cc(Cl)ccc21 (stereo unspecified) | 60.5
Clc1ccc2c(N/N=C/c3cccc(Br)c3)ccnc2c1 | 96.4
Cc1ccc(C2=NN(S(=O)(=O)c3ccccc3)C(c3ccccc3O)C2)cc1 (stereo unspecified) | 34.4
Cc1c(C(=O)NN2CCCCC2)nn(-c2ccc(Cl)cc2Cl)c1-c1ccc(I)cc1 | 49.7
CCCCc1c(C)nn(-c2nnc3c4ccccc4n(CC)c3n2)c1C | 41.7
O=C1c2ccccc2C2=Nc3ccccc3SC(c3cccc(F)c3)C12 (stereo unspecified) | 73.7
CC(=O)CCc1oc2c([N+](=O)[O-])cccc2c1-c1ccc(C)o1 | 42.1
CC1CCCCN1C(=O)Cn1cc(/C=C2/C(=O)Nc3ccccc32)c2ccccc21 (stereo unspecified) | 2.65
O=C(CCc1ccc(Oc2cc([N+](=O)[O-])cc([N+](=O)[O-])c2)cc1)N1CCCCCC1 | 36.8

SMILES | inhibition [%]
Cc1ccc(NC(=O)c2cc(-c3ccccc3)nn2-c2ccccc2)cc1 | 26.4
Cc1c(CN2CCC(CO)(CCOc3ccccc3)CC2)[nH]c2c(Cl)cccc12 | 91.1
Cc1ccc(-n2cc(-c3ccccc3)c3c(N4CCOCC4)ncnc32)cc1 | 8.62
COc1ccc(NC(=O)c2cc(-c3cc(C)cc(C)c3O)n[nH]2)cc1Cl | 52.5
Oc1nc(Nc2cccc(Cl)c2)sc1/C=C1\C=Nc2ccccc21 | 42.3
CCCn1c(N2CCC(Cc3ccccc3)CC2)nc2c1c(=O)[nH]c(=O)n2C | -1.39
CCN(CC)c1ncnc2scc(C3COc4ccccc4O3)c12 (stereo unspecified) | 27.3
Cc1onc(-c2ccccc2Cl)c1C(=O)Nc1nnc(-c2ccc(Br)cc2)s1 | 16.6
COC(=O)c1cn(N(C)c2ncc(C(F)(F)F)cc2Cl)c(=O)c2ccccc12 | 22.1
O=[N+]([O-])c1ccc(Nc2nc(NC3CCCCC3)nc(N3CCCC3)n2)cc1 | 44
CC(C)Oc1ccc(C(=O)NC2(C(F)(F)F)NC(=O)N(CCCc3ccccc3)C2=O)cc1 (stereo unspecified) | 3.08
Cc1cc(Cl)ccc1OCC(=O)NCCCCc1ccccc1 | 27.4
Cc1cc(C)c2nc(N3CCC(C(=O)NCCCN4CC(C)CC(C)C4)CC3)sc2c1 (stereo unspecified) | 30.5
Cc1cccc(OCC(=O)Nc2ccc3nc(C)sc3c2)c1 | 58.1
Clc1ccc2c(N/N=C/c3ccc(Br)cc3)ccnc2c1 | 98.3
Cc1nc(N2CCCCC2)c2c(-c3cccs3)csc2n1 | 17.4
O=C(NCc1nnc(SCc2ccc(C(F)(F)F)cc2)n1-c1ccccc1)C12CC3CC(CC(C3)C1)C2 | 14.4
O=C1c2ccccc2-c2n[nH]c(=O)c3ccc(N4CCCCC4)c1c23 | 30.2
O=C(COc1ccc(Cl)cc1Cl)NCCCCc1ccccc1 | 43.6
c1ccc(N(c2ccccc2)c2nc(N3CCCC3)nc(-n3ccnc3)n2)cc1 | 25
O=C1Nc2ccccc2/C1=N\N=C\C1=C(N2CCOCC2)C(=C\c2ccccc2)/CC1 | 45.9
CN=C(Nc1cc(Cl)ccc1Cl)SC1CC(=O)N(c2ccc(C(=O)OC)cc2)C1=O (stereo unspecified) | 40

SMILES | inhibition [%]
Cc1nc(N2CCCCC2)c2c(C)c(C(=O)Nc3cccc(C(F)(F)F)c3)sc2n1 | 8.83
Cc1cccc(NC(=O)c2cc3n(n2)C(C(F)(F)F)CC(c2ccc4c(c2)OCO4)N3)c1 (stereo unspecified) | 45
S=C(NCCc1ccccc1)NC1CCCCCC1 | 60.7
COc1ccc(NC(=O)c2cc3n(n2)C(C(F)(F)F)CC(c2ccc4c(c2)OCO4)N3)cc1OC (stereo unspecified) | 50
COc1ccc(-c2nnc3n(CCc4ccccc4)c(=O)c4ccccc4n23)c(OC)c1 | 93.4
COc1ccc(/C=N/Nc2cc(N3CCCC3)nc(N3CCCC3)n2)cc1 | 63
S=C(NCC1CCCO1)N1CCN(c2nc(-c3ccc(Cl)cc3)cs2)CC1 (stereo unspecified) | 36.8
O=C1c2ccccc2C(=O)c2cc(S(=O)(=O)Nc3ccccc3)ccc21 | 25.8
COc1ccc(/C=N/NC(=O)c2ccn[nH]2)cc1COc1ccc(Cl)cc1Cl | -4.76
CCCSc1nc(NCc2ccco2)c2c3c(sc2n1)COC(C)(C)C3 | 40.2
CC(NCC(O)COC1CCC(C(C)(C)C)CC1)c1ccccc1 (stereo unspecified) | 61.6
CCNC(=S)N/N=C(\C)c1ccc2ccccc2c1 | 63
N#CC1=C(N)SC(N)=C(C#N)C1c1c(Cl)cccc1Cl | -1.3
CCOc1cc(/C=C2\SC(=S)N(Nc3ccccc3)C2=O)ccc1O | 60
Cc1ccccc1Nc1cc(C)c2c(O)cccc2n1 | 40.8
O=C(/C=C/c1ccco1)Nc1cccc(NC(=O)/C=C/c2ccco2)n1 | 51.4
OCCN(CCO)CC(O)COc1ccc(C23CC4CC(CC(C4)C2)C3)cc1 (stereo unspecified) | 25.5
O=C(Nc1ccc(NC(=S)NC(=O)c2ccccc2F)cc1)c1cccs1 | 31.2
CCOc1ccc2nc(NC(=O)c3ccoc3C)sc2c1 | 78.3
CN1CCN(c2ccc(-c3ccc4ccccc4n3)cc2)CC1 | 64.8
CC(/C=C/c1ccccc1)=N\NC(=S)NC(C)C | 68.2
Cc1cc(C(C)(C)C)ccc1OCCn1ccnc1 | 69.1

SMILES | inhibition [%]
C/C(=N/Nc1cc(-c2ccccc2)nc(-c2ccccc2)n1)c1ccc(O)cc1 | 77.2
Fc1ccc(-c2csc3ncnc(N4CCc5ccccc5C4)c23)cc1 | -24.2
Cc1ccc(OCC(=O)NNC(=S)NC(=O)C(C)(C)C)c(Br)c1 | 82.2
Fc1ccccc1Nc1nc2c(s1)CCc1ccccc1-2 | 13.5
O=C(CCCSc1ccccc1)Nc1nc(-c2ccccn2)cs1 | 66.5
CC1(C)CC(c2nc(-c3ccccc3)cs2)CCS1 (stereo unspecified) | 17.3
O=C(Cc1ccc(Cl)cc1)NC(=S)Nc1ccccc1N1CCOCC1 | 7.08
CC(C)CCn1c(O)c(N=Nc2ccccn2)c2ccccc21 | 18.7
CCOC(=O)/C(=C\c1ccc(OC(F)F)cc1)C1=Nn2c(nnc2-c2ccc(Cl)cc2)SC1 | 14.3
COC(=O)c1cc2ccccc2c(-c2c(OC)c(C(=O)OC)cc3ccccc23)c1OC | 47.2
S=C(NCCCc1ccccc1)Nc1ccccc1Cl | 57.8
COc1cccc(-c2nc(OC(C)C)c3ccccc3n2)c1 | 9.47
CN(C)c1ccc(/C=N/NC(=S)NCc2ccccc2)cc1 | 61.6
CCc1ccc(C(O)(c2ccccc2OC)C(CN2CCOCC2)c2ccccc2)cc1 (stereo unspecified) | 59.4
CCOC(=O)C1CCCN(C(=O)CN2C(=O)/C(=C/c3ccc(OC)cc3)Oc3ccccc32)C1 (stereo unspecified) | 12.7
O=C(c1ccc(Cl)cc1)N1CCC(O)(CSc2ccc(Cl)cc2Cl)CC1 | 67.5
Cc1ccc(C)c(N2CCN(C(=O)c3csc4ccccc34)CC2)c1 | 32.5
CC(C)=CCC/C(C)=C/Cc1c(O)ccc(C(=O)/C=C/c2ccc(O)cc2)c1O | 64

From PubChem BioAssay AID1362 (SRMLSC, 2008)
